Results reported in PubChem BioAssay AID488969 (Vanderbilt High Throughput Screening Facility, 2010).
The full ranking holds about 110,000 compounds; the median of “z-score” is about -0.1, and the highest 2% start at about 2. This is one part of the list. Activity calls are given as the source filed them.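 The calls were made as follows: active = z-score in the third read window above 3 or below -3; inactive = the rest.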

Target: Metabotropic glutamate receptor 8 (Rattus norvegicus) (UniProt P70579)
UniProt P70579, sequence (P70579 whole entry, looked up): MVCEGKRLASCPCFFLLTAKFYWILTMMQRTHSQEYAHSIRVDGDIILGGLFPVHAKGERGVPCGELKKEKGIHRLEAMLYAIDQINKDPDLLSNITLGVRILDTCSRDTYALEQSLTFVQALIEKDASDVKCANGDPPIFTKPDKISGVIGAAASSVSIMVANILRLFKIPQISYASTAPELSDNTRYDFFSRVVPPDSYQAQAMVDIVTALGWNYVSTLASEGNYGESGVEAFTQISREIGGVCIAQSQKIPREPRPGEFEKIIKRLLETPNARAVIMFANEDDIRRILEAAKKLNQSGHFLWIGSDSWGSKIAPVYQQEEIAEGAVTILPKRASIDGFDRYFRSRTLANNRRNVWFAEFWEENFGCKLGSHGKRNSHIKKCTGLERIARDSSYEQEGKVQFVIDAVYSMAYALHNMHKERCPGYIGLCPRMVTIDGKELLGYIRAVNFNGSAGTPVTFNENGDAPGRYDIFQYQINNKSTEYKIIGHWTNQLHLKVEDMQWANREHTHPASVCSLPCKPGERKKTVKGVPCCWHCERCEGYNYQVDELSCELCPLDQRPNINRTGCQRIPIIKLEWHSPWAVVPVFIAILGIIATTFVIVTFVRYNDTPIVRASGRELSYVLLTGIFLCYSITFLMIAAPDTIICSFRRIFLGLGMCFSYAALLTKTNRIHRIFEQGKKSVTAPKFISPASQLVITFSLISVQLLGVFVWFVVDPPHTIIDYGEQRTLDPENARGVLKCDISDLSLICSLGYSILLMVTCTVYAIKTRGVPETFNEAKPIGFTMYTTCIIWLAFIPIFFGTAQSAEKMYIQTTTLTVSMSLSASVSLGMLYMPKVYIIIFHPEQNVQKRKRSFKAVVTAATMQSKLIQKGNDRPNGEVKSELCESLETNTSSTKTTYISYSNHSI
Assay: rat mGluR8 modulators via GIRK flux, primary screen, cell-based, thallium flux, HTS (AID 488969)
Conditions: HEK293 rat mGluR8, GIRK (G protein-gated inwardly rectifying potassium channel) thallium flux, FluoZin2; at 10 µM; stronger effect = higher value; submaximal glutamate (EC20) added with thallium

SMILES | z-score
COc1ccc(-c2cn3c(C)c(C(=O)Nc4cccc(C)n4)sc3n2)cc1 | -0.14
Oc1ccccc1N=Cc1sc2ccccc2c1Cl | -0.0663
Cn1c(CCNC(=O)c2cccs2)nnc1SCC(=O)Nc1nc(-c2ccccc2)cs1 | -0.799
CCOc1ccc(N(C(C)C(=O)N/N=C(\C)c2cccc(NC(=O)c3ccccc3)c2)S(C)(=O)=O)cc1 (stereo unspecified) | 0.165
COc1ccccc1N1CCN(C(=O)CN(c2ccc(C)c(C)c2)S(C)(=O)=O)CC1 | 0.325
ONC(=Nc1ccc(Cl)cc1)c1ccccc1 | -0.177
COc1ccc2nc(C)c3cc(C)oc3c2c1 | -0.404
CN(C)S(=O)(=O)N1CCc2ccccc21 | 0.738
CC1CCCC(C(=O)O)N1C(=O)CCSC(=O)c1ccccc1 (stereo unspecified) | -0.482
CN1CCC(=NNC(=O)C(=O)NCc2ccccc2)CC1 | 0.49
O=C(Cc1ccccc1)Nc1ccc(SC(F)F)cc1 | 0.0729
Cc1cccc(OCCCC(=O)N2CCCc3ccccc32)c1C | 0.674
COc1ccc(-c2cc(-c3nnc(COC(=O)C4CC4C)o3)c3ccccc3n2)cc1OC (stereo unspecified) | -0.151
Cc1cccc(-c2noc(-c3ccc(Cl)cc3[N+](=O)[O-])n2)c1 | -2.09
Cc1ccc2c(CC(=O)N3CCN(S(=O)(=O)c4cccs4)CC3)coc2c1 | -0.213
C=CCNc1nnc(SC2CC(=O)N(c3ccc(OCCC)cc3)C2=O)s1 (stereo unspecified) | -0.0986
O=[N+]([O-])c1cccc(C(=Nc2ccccc2Cl)NO)c1 | -0.297
CCNC(=O)CCSc1nnc(-c2ccco2)o1 | 0.0546
CCOc1ccccc1NC(=S)NNS(=O)(=O)c1c(C)cc(C)cc1C | 0.289
Cc1nc(SCC(=O)N2CCc3ccccc3C2)c2c(C)c(C)sc2n1 | -0.304
CCn1c(NC(=S)Nc2ccccc2)nc2ccccc21 | active: 15.2
CC(C)C(=O)c1cn(CC(=O)NCc2ccc3c(c2)OCO3)c2ccccc12 | -1.01
CCCC(C)NC(=O)COc1ccc(S(=O)(=O)c2ccc(OCC(=O)NC(C)CCC)cc2)cc1 (stereo unspecified) | -0.128

SMILES | z-score
CC(NC(=S)Nc1ccc(S(N)(=O)=O)cc1)c1ccc2c(c1)OCO2 (stereo unspecified) | -0.409
Cn1c(Cl)c(/C=N/OC(=O)c2ccccc2Cl)c2ccccc21 | 0.017
Cc1cccc(Nc2nc(N)nc(CSc3nccc(C)n3)n2)c1 | 0.127
Brc1ccc(CSc2nnc(-c3ccco3)o2)cc1 | -0.352
CCOC(=O)C1=C(c2ccccc2)O/C(=C(/C(=O)OC)C(F)(F)F)S1 | -0.0864
CCCn1nnnc1NC(=O)c1cccs1 | 0.876
Cc1ccc(C)c(NC(NC(=O)c2cccnc2)C(Cl)(Cl)Cl)c1 (stereo unspecified) | -0.0606
COc1ccccc1N1CCN(S(=O)(=O)Cc2ccccc2Cl)CC1 | -0.125
COc1ccc(/C=C2\C(=O)NC(=S)N2C(=O)c2ccc(F)cc2)cc1 | active: 3.14
CCCC1CCC(c2nc(-c3cccnc3)no2)CC1 (stereo unspecified) | 0.21
Cc1ccc(S(=O)(=O)NCc2ccc(/C=C(/C#N)C(=O)NCc3ccccc3)o2)cc1 | -0.359
CCN=c1sc2ccccc2n1CC(O)COc1ccccc1 (stereo unspecified) | 0.979
Cc1cccc2cc(CN(Cc3cccs3)C(c3nnnn3C3CCCC3)C(C)C)c(=O)[nH]c12 (stereo unspecified) | 0.101
Cc1ccc(-c2nc(N/N=C/c3ccccc3[N+](=O)[O-])c3ccccc3n2)cc1 | -0.406
CC(=O)NCC(=O)N(c1ccccc1)C1(C(=O)NC2CCCCC2)CCCCC1 | 0.432
COc1ccc(N(C(=O)C(C)C)S(=O)(=O)c2cccs2)cc1 | 0.0305
CCOc1ccc(OCC(=O)Nc2ccc(S(=O)(=O)Nc3cc(C)nc(C)n3)cc2)cc1 | 0.47
OCCN(Cc1ccccc1)Cc1ccccc1Cl | 0.0815
O=C1CCOc2cc(OCc3ccccc3)ccc21 | -0.0517
CC1CCN(S(=O)(=O)c2ccc(S(=O)(=O)N3CCCN(Cc4ccccc4)C3)cc2)CC1 | -0.138
CCOC(=O)N1CCN(S(=O)(=O)c2ccc(C)cc2)C1c1ccccc1 (stereo unspecified) | -0.0804
CCCCOC(=O)c1ccc(NC(=O)c2ccoc2C)cc1 | -0.0292
O=C(CC1c2ccccc2Oc2ccccc21)N1CCN(c2ccccn2)CC1 | -0.502

SMILES | z-score
O=Cc1c(N2CCCCCC2)nc2ccccn2c1=O | -0.652
CCCc1nc2ccccc2n1CCOc1ccccc1 | -0.561
COc1ccc(Cn2c(CCC(=O)Nc3ccccc3)nc3cccnc32)cc1 | -0.156
CCC(=O)N1CCN(c2c(Cl)cccc2[N+](=O)[O-])CC1 | -0.126
NC(=O)c1ccccc1NS(=O)(=O)Cc1ccccc1 | 0.144
C=CCSc1nnc(-c2cnn(-c3ccccc3)c2-n2cccc2)n1C | -0.242
CC(CC(=O)Nc1ccc(Cl)c([N+](=O)[O-])c1)c1ccccc1 (stereo unspecified) | -0.175
O=C(NC(=S)Nc1ccccc1N1CCCCC1)c1cccs1 | -0.0387
O=C(Nc1cccc(Cl)c1)c1cccc(Oc2ccc([N+](=O)[O-])cc2Cl)c1 | 0.335
O=C(CSc1nnc(-c2cccnc2)n1Cc1ccco1)c1ccc2ccccc2c1 | -1.51
Cc1ccc(C(=O)CSc2nc3ccccc3o2)cc1 | 0.274
O=C1NC(=S)N/C1=C/c1ccc(-c2c(Br)cc([N+](=O)[O-])cc2Br)o1 | -0.358
CC(=O)c1cccc(NC(=O)N2CCc3ccccc3C2)c1 | 0.52
CC(C)C(=O)Nc1ccccc1C(=O)OCC(=O)c1ccc2c(c1)OCCO2 | -0.424
COc1ccc(OCCCC(=O)NC(C)c2ccccc2)cc1 (stereo unspecified) | -0.342
CCOC(=O)N1CCN(C(=O)CS(=O)(=O)c2cn(Cc3ccccc3Cl)c3ccccc23)CC1 | 0.175
CCc1c(C)c2ccc(OCC(=O)N(C)C)c(C)c2oc1=O | 0.0573
Cc1nn(CC(=O)Nc2cccc(S(N)(=O)=O)c2)c(C)c1[N+](=O)[O-] | -0.212
COc1ccc(CNC(=O)C2=C(C)C(=O)OC23CCC(C)CC3)cc1 (stereo unspecified) | -0.0555
O=c1c2ccccc2ncn1CCCSc1ccc(Cl)cc1 | 0.183
Cn1c(NCCO)nc2c(c1=O)C1(CCCCC1)Cc1ccccc1-2 | -0.614
O=C(O)c1cnn2c(C(F)(F)F)cc(-c3ccccc3)nc12 | 0.0151
Cc1ccc(NC(=O)COC(=O)c2cc(C)nc3ccccc23)c([N+](=O)[O-])c1 | -0.23

SMILES | z-score
Cc1ccc(S(=O)(=O)N2CCCOC2CNC(=O)C(=O)NCc2ccncc2)cc1 (stereo unspecified) | 0.0703
COc1ccc(N2C(=O)CC(NCc3ccncc3)C2=O)cc1 (stereo unspecified) | -0.241
CC(=O)Nc1ccc2c(c1)C(=O)c1ccccc1C2=O | -0.494
CCOC(=O)c1c(NC(=O)C2C3C=CC(CC3)C2C(=O)O)sc(C)c1C (stereo unspecified) | 0.959
C=CCSc1nnc(-c2nnc(SCC=C)n2-c2ccccc2)n1-c1ccccc1 | -0.178
Cc1ccnc(NC2OC(=O)c3ccccc32)c1 (stereo unspecified) | 0.529
CCc1ccccc1NC(=O)CN(c1cccc(OC)c1)S(C)(=O)=O | -0.141
N#Cc1c(-c2ccc3c(c2)OCO3)csc1N | -0.142
Cc1cccc(N2CCN(S(=O)(=O)c3cccc4nonc34)CC2)c1C | 0.0258
Cc1ccc(-c2nnc(SCc3nc(N)nc(Nc4ccccc4C)n3)n2N)cc1 | -0.195
COCCn1c(SCc2nc(N)nc(Nc3ccccc3C)n2)nc2ccccc2c1=O | -0.279
O=c1[nH]n(-c2ccccc2)c(=O)c(Cl)c1Cl | 0.0804
COc1ccc(NC(=O)Cc2coc3cc(C)ccc23)cc1S(=O)(=O)N1CCOCC1 | -0.439
COc1ccc(Cc2nn3c(-c4ccccc4Br)nnc3s2)cc1 | -0.534
CCCn1nc(Oc2nc(NCC)nc(NC(C)C)n2)ccc1=O | -0.313
CCOc1ncccc1C(=O)N(C)CC1COc2ccccc2O1 (stereo unspecified) | -0.000907
COc1cc(/C=N/N(C)c2ccccc2)ccc1O | -1.29
CCC(CC)C(=O)NCCc1cc2ccc(OC)cc2[nH]c1=O | 0.152
CCN(c1ccccc1)S(=O)(=O)c1ccc(OC)c(OC)c1 | -0.127
COc1cccc(N2CCN(C3CCCC(C)C3)CC2)c1 (stereo unspecified) | -0.393
O=C(/C=C\c1ccc2c(c1)OCO2)Nc1nnc(SCC(=O)OCc2ccccc2)s1 | -0.385
O=C(CSc1nnc(Cc2ccccc2)o1)NCc1ccco1 | 1.21
Clc1ccc(-c2noc(CN3CCN(c4ccccc4)CC3)n2)cc1 | 0.526

SMILES | z-score
O=C(CCn1cccc1)NCCc1ccc(Cl)cc1 | -0.743
Cc1cc(C)cc(OCc2nnc(SCC(=O)N3CCN(c4ccccc4)CC3)o2)c1 | -0.592
Cc1cc(C)c(C(N)=O)c(Nc2ccc3c(c2)OCCO3)n1 | -0.00183
CCOC(=O)C1=C(Cn2cnc3ccccc32)NC(=O)NC1c1cc(C)ccc1C (stereo unspecified) | 0.667
CCCCCOC(=O)c1ccc(OC(=O)c2cncc(Br)c2)cc1 | -0.0693
O=C(CNS(=O)(=O)c1ccccc1)Nc1ccc(C(F)(F)F)cc1 | -0.247
COc1cc(NS(=O)(=O)c2ccc(NC(=O)/C(=C/c3ccccc3Cl)NC(=O)c3ccccc3)cc2)nc(OC)n1 | -0.196
COc1ccc(C2Nc3ccccc3C(=O)N2c2ccc(F)cc2)cc1CSc1ccccn1 (stereo unspecified) | -0.342
CCOC(=O)C(C)c1ccc2cc(OC)ccc2c1 (stereo unspecified) | -0.0102
CN1CC(=O)N(CC(=O)Nc2ccc(Cl)c(C(F)(F)F)c2)C1=O | -0.0297
c1ccc(-c2nc(NCC3CCCO3)c3oc4ccccc4c3n2)cc1 (stereo unspecified) | -0.637
CCOc1ccc2nc(SCc3ccccc3C#N)sc2c1 | -0.141
Cc1ccc(SCc2ccc(C(=O)Nc3cccc([N+](=O)[O-])c3C)cc2)cc1 | -0.0842
CCn1c(COc2ccc(OC)cc2)nnc1SCC(=O)Nc1cc(OC)ccc1OC | -1.08
COC(=O)CSC1=C(C#N)C(c2ccc(C(C)C)cc2)CC(=O)N1 (stereo unspecified) | -0.111
CCOC(=O)CC(=O)CSc1nnc2sc3ccccc3n12 | 0.25
CCOC(=O)c1cc(C#N)c(N2CCCCC2)nc1-c1ccccc1 | -0.0359
COC(=O)[C@H](C)NC(=O)Nc1cccc(C(F)(F)F)c1 | 0.715
O=C(CSc1nnc(SCC(=O)NCc2ccc3c(c2)OCO3)s1)NCc1ccc2c(c1)OCO2 | -0.328
